Results published in paper doi:10.1101/2023.05.26.542386 (bioRxiv, 2023).

What was measured:
[1] = target: T1, mCD86 Fc (human IgG1) chimera (mouse, UniProt P42082 24-244); assay: pull-down
T1 sequence (looked up): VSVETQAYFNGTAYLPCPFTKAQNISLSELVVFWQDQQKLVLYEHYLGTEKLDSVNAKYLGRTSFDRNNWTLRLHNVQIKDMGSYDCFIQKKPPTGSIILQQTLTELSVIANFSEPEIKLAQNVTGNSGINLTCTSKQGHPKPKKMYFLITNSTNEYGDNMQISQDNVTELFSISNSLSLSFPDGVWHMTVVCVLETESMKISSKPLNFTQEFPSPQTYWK

[2] = target: T2, mCD80 Fc (human IgG1) chimera (mouse, UniProt Q00609 38-246); assay: pull-down
T2 sequence (looked up): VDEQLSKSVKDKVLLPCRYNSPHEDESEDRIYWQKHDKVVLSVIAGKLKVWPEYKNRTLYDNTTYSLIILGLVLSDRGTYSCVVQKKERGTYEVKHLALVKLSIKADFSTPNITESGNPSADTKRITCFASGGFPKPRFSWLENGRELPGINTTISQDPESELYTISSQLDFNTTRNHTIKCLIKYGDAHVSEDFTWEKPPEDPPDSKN

binding result [1]: binds
binding result [2]: binds
B1: mCD152/Fc (CTLA4-Ig, mouse IgG2a, non-cytolytic) chimera (Fc fusion)
chain: not shown
